According to the supplement of paper PMC4604168 (melanoma cell lines):
This is one part of the list. Single values are uncertain, as repeats are few or missing.

Tests used:
Experiment in all cases: cell count relative to DMSO control; melanoma cells; higher = more viable cells
Details in all cases: library dose: low library concentration; 72 h
[1] = test system: WM115
[2] = test system: WM1716
[3] = test system: WM1745
[4] = test system: WM3526
[5] = test system: WM3619
[6] = test system: WM451Lu
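Note: cell number obtained by counting DAPI-stained nuclei in high-throughput microscope images with image analysis software, screen run in 1,536-well plates.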

Structure (SMILES)	cell count [1] [%]	cell count [2] [%]	cell count [3] [%]	cell count [4] [%]	cell count [5] [%]	cell count [6] [%]
C[C@]12O[C@H](C[C@]1(O)CO)n1c3ccccc3c3c4c(c5c6ccccc6n2c5c31)CNC4=O [Lestaurtinib] + CC1(C)NC(=O)N(c2ccc([N+](=O)[O-])c(C(F)(F)F)c2)C1=O [nilutamide] (first compound 0.004 µM, partner dose 1 µM)	107	103	101	82.6	114	96.5
Cn1cc(C2=C(c3cn(C4CCN(Cc5ccccn5)CC4)c4ccccc34)C(=O)NC2=O)c2ccccc21 [Enzastaurin] + C[C@]12O[C@H](C[C@]1(O)CO)n1c3ccccc3c3c4c(c5c6ccccc6n2c5c31)CNC4=O [Lestaurtinib] (first compound 0.8 µM, partner dose 0.004 µM)	95.5	96.1	78.9	86.6	97.8	103
C[C@]12O[C@H](C[C@]1(O)CO)n1c3ccccc3c3c4c(c5c6ccccc6n2c5c31)CNC4=O [Lestaurtinib] + C[C@@H](Oc1cc(-c2cnn(C3CCNCC3)c2)cnc1N)c1c(Cl)ccc(F)c1Cl [Crizotinib] (first compound 0.004 µM, partner dose 0.2 µM)	83.8	99.8	102	93.8	116	78.2
C[As](C)SC[C@H](NC(=O)CC[C@H](N)C(=O)O)C(=O)NCC(=O)O [Darinaparsin] + O=C(Nc1cccc(Cl)c1)Nc1ncc(CCNc2ncnc3ccsc23)s1 [SNS314] (first compound 0.4 µM, partner dose 0.0008 µM)	81.6	102	114	99.4	103	82.9
C[C@]12O[C@H](C[C@]1(O)CO)n1c3ccccc3c3c4c(c5c6ccccc6n2c5c31)CNC4=O [Lestaurtinib] + CN1CCN(c2ccc3nc(-c4c(N)c5c(F)cccc5[nH]c4=O)[nH]c3c2)CC1 [Dovitinib] (first compound 0.004 µM, partner dose 0.1 µM)	88.2	102	86.7	70.7	94.8	81.1
N.N.[Cl][Pt][Cl] [cisplatin] + CO[C@@H]1[C@H](N(C)C(=O)c2ccccc2)C[C@H]2O[C@]1(C)n1c3ccccc3c3c4c(c5c6ccccc6n2c5c31)C(=O)NC4 [Midostaurin] (first compound 1.6 µM, partner dose 0.08 µM)	89.1	82.3	88	95.7	79.1	85.9
N.N.[Cl][Pt][Cl] [cisplatin] + CCc1ccc(CCOc2ccc(CC3SC(=O)NC3=O)cc2)nc1 [pioglitazone] (first compound 1.6 µM, partner dose 2 µM)	95.4	79.1	97.6	78.9	102	85.7
C[C@]12O[C@H](C[C@]1(O)CO)n1c3ccccc3c3c4c(c5c6ccccc6n2c5c31)CNC4=O [Lestaurtinib] + Cc1cc(Nc2cc(N3CCN(C)CC3)nc(/C=C/c3ccccc3)n2)n[nH]1 [ENMD2076] (first compound 0.004 µM, partner dose 0.04 µM)	101	110	99.7	83.9	99.8	109
C[C@]12O[C@H](C[C@]1(O)CO)n1c3ccccc3c3c4c(c5c6ccccc6n2c5c31)CNC4=O [Lestaurtinib] + NC1(c2ccc(-c3nc4ccn5c(=O)[nH]nc5c4cc3-c3ccccc3)cc2)CCC1 [MK2206] (first compound 0.004 µM, partner dose 0.4 µM)	88.9	89	85.8	63.2	77.8	98.6
N.N.[Cl][Pt][Cl] [cisplatin] + Cc1ccc(NC(=O)c2cccc(N(C)C)c2)cc1NC(=O)c1ccc(O)cc1 [ZM336372] (first compound 1.6 µM, partner dose 2 µM)	90.3	112	77.6	98	76.7	94.2
C[C@]12O[C@H](C[C@]1(O)CO)n1c3ccccc3c3c4c(c5c6ccccc6n2c5c31)CNC4=O [Lestaurtinib] + O=C(O)C(=O)Nc1sc2c(c1C(=O)O)CCNC2 [TCS401] (first compound 0.004 µM, partner dose 1.66667 µM)	110	109	84.7	83.5	130	115
C[C@]12O[C@H](C[C@]1(O)CO)n1c3ccccc3c3c4c(c5c6ccccc6n2c5c31)CNC4=O [Lestaurtinib] + Cn1cncc1[C@@](N)(c1ccc(Cl)cc1)c1ccc2c(c1)c(-c1cccc(Cl)c1)cc(=O)n2C [tipifarnib] (first compound 0.004 µM, partner dose 0.01 µM)	84.3	80.3	94.3	85.5	88.8	98.8
C[As](C)SC[C@H](NC(=O)CC[C@H](N)C(=O)O)C(=O)NCC(=O)O [Darinaparsin] + O=C1NC(=O)/C(=C/c2ccc(-c3ccc(F)cc3O)o2)S1 [AS252424] (first compound 0.4 µM, partner dose 1 µM)	99.9	106	86.2	111	119	104
N.N.[Cl][Pt][Cl] [cisplatin] + CNC(=O)c1cc(Oc2ccc(NC(=O)Nc3ccc(Cl)c(C(F)(F)F)c3)cc2)ccn1 [sorafenib] (first compound 1.6 µM, partner dose 0.4 µM)	92.9	91	97.9	96.7	85.9	95.3
N.N.[Cl][Pt][Cl] [cisplatin] + O=S(=O)(c1ccccc1)N(CC(F)(F)F)c1ccc(C(O)(C(F)(F)F)C(F)(F)F)cc1 [T0901317] (first compound 1.6 µM, partner dose 1.4 µM)	100	97.5	93.5	92.4	101	116
N.N.[Cl][Pt][Cl] [cisplatin] + CCCS(=O)(=O)Nc1ccc(F)c(C(=O)c2c[nH]c3ncc(Cl)cc23)c1F [PLX4720] (first compound 1.6 µM, partner dose 0.08 µM)	99.4	110	106	82.1	94.2	109
Cn1cc(C2=C(c3cn(C4CCN(Cc5ccccn5)CC4)c4ccccc34)C(=O)NC2=O)c2ccccc21 [Enzastaurin] + CC(=O)c1c(C)c2cnc(Nc3ccc(N4CCNCC4)cn3)nc2n(C2CCCC2)c1=O [palbociclib] (first compound 0.8 µM, partner dose 0.04 µM)	85	75.9	72.3	46.4	99.4	98.4
C[As](C)SC[C@H](NC(=O)CC[C@H](N)C(=O)O)C(=O)NCC(=O)O [Darinaparsin] + COc1ccc2c(c1)CCC1C2CCC2(C)C(NCCCCCCN3C(=O)C=CC3=O)CCC12 [U73122] (first compound 0.4 µM, partner dose 0.4 µM)	90.3	105	87.5	118	94.8	72.4
N.N.[Cl][Pt][Cl] [cisplatin] + C=CCn1c(=O)c2cnc(Nc3ccc(N4CCN(C)CC4)cc3)nc2n1-c1cccc(C(C)(C)O)n1 [MK1775] (first compound 1.6 µM, partner dose 0.02 µM)	79.3	86.7	94.6	94.7	88.3	106
N.N.[Cl][Pt][Cl] [cisplatin] + COc1cc2c(Oc3ccc4[nH]c(C)cc4c3F)ncnc2cc1OCCCN1CCCC1 [cediranib] (first compound 1.6 µM, partner dose 0.4 µM)	94.5	94.8	115	92.4	114	120
Cn1cc(C2=C(c3cn(C4CCN(Cc5ccccn5)CC4)c4ccccc34)C(=O)NC2=O)c2ccccc21 [Enzastaurin] + CCCCCCCCCCCC1=C(O)C(=O)C=C(O)C1=O [Embelin] (first compound 0.8 µM, partner dose 1.2 µM)	116	110	95.9	99.1	97.7	129
Cn1cc(C2=C(c3cn(C4CCN(Cc5ccccn5)CC4)c4ccccc34)C(=O)NC2=O)c2ccccc21 [Enzastaurin] + Nc1nc(F)nc2c1ncn2[C@@H]1O[C@H](CO)[C@@H](O)[C@@H]1O [fludarabine] (first compound 0.8 µM, partner dose 0.2 µM)	103	120	98.4	33.3	84.5	76.3
C[As](C)SC[C@H](NC(=O)CC[C@H](N)C(=O)O)C(=O)NCC(=O)O [Darinaparsin] + O=S(=O)(c1ccccc1)N(CC(F)(F)F)c1ccc(C(O)(C(F)(F)F)C(F)(F)F)cc1 [T0901317] (first compound 0.4 µM, partner dose 1.4 µM)	93.6	90.4	84.3	89.7	104	105
Cn1cc(C2=C(c3cn(C4CCN(Cc5ccccn5)CC4)c4ccccc34)C(=O)NC2=O)c2ccccc21 [Enzastaurin] + OCc1c[nH]c2ccccc12 [Indole-3-carbinol] (first compound 0.8 µM, partner dose 0.8 µM)	111	98.4	101	99.6	89.5	99.6
